The values below come from publication PMC4336329 (PLoS ONE, 2015).

Structures are written as SMILES. Screen size: about 310,000 compounds; about 2,200 (0.71%) showed an effect of 50% or more. The effect is printed as a negative number. Some of the results follow.

Sequence of human ether-à-go-go-related gene (hERG) potassium channel (Q12809 whole entry, looked up): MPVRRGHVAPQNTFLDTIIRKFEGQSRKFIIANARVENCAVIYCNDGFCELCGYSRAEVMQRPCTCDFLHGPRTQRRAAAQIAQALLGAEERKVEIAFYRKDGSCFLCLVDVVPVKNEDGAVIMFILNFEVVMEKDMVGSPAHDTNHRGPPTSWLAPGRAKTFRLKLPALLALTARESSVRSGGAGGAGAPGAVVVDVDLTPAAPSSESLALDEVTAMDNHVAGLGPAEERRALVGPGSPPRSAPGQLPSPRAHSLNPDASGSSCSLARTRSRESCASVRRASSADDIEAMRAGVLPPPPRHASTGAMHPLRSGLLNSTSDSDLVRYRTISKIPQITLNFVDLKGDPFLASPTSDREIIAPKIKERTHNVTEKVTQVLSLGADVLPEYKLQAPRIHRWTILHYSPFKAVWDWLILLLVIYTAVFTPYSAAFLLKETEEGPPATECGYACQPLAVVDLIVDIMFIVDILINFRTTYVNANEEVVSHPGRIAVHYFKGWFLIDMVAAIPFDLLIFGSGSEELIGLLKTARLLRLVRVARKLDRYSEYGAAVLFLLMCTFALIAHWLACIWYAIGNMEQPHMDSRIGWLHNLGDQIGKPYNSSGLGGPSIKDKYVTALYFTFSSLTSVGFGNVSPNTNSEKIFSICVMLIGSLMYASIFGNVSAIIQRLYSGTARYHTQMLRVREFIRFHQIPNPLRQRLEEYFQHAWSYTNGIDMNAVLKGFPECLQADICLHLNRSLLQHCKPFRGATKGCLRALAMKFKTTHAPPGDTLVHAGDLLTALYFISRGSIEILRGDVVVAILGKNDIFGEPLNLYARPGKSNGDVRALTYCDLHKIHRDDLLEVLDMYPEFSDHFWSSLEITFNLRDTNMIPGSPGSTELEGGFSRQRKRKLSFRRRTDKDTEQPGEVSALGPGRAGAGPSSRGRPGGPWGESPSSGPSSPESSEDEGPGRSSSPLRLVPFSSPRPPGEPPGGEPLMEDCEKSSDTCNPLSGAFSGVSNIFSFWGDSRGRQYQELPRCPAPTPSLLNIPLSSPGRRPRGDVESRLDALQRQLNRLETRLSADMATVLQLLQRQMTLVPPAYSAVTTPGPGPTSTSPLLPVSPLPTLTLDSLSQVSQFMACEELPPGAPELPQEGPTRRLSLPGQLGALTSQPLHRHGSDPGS

The test addresses human ether-à-go-go-related gene (hERG) potassium channel (human, UniProt Q12809). The test is described as follows: primary screen, population patch clamp on CHO cells stably expressing hERG.
As to `COc1ccc(NC(=O)CN(C)C(=O)CSCC(=O)Nc2ccc(C)cc2)cc1`, the “hERG current change (%, negative = inhibition) at 1uM” value stood at 16.4%.
The result for `Cc1c(Cl)cccc1NC(=O)CSCc1cc(=O)[nH][nH]1` reads -2.49%; that for `Cc1ccccc1NC(=O)CSc1nnc(Cc2ccccc2)c(=O)n1N`, 14.5%; that for `Cc1c(NC(=O)CSCc2ccccc2)cccc1C(=O)O`, 19.7%.
In the case of `O=C1CN(C(=O)COC(=O)c2cc(S(=O)(=O)N3CCOCC3)ccc2Cl)c2ccccc2N1`, the “hERG current change (%, negative = inhibition) at 1uM” value was -2.2%.
With `CCN(C(=O)Cn1c(=O)oc2cc(S(=O)(=O)N3CCOCC3)ccc21)c1ccccc1`, the “hERG current change (%, negative = inhibition) at 1uM” value came out at 8.21%.
The result for `CC(C)(CN1CCc2ccccc2C1)NS(=O)(=O)c1ccc(Cl)cc1` reads 8.91%; that for `CCCCN(C(=O)Cc1coc2cc(C)c(C)cc12)c1c(N)n(Cc2ccccc2)c(=O)[nH]c1=O`, -1.96%.
The result for `CC(=O)Nc1cc(C(=O)OCC(=O)c2ccc(Cl)cc2Cl)ccc1C` reads 15.3%.
The result for `Cn1ncc(C#N)c1NC(=O)C1CC(c2c(F)cccc2Cl)=NO1` (stereo not drawn) reads -2.08%.
Regarding `COc1ccc(-n2nc(C(=O)NCC(=O)N3CCCC(C)C3)c3ccccc3c2=O)cc1` (stereo not drawn), the “hERG current change (%, negative = inhibition) at 1uM” value came out at 17.2%.
The result for `CC(NC(=O)C(C)N1c2cccc3cccc(c23)S1(=O)=O)c1ccccc1` (stereo not drawn) reads 12.3%; that for `CCOc1ccccc1OCC(=O)Nc1nnc(COC)s1`, -12.4%.
Regarding `Cc1ccc(C)n1-c1cccc(C(=O)O)c1`, the “hERG current change (%, negative = inhibition) at 1uM” value is listed as -2.91%.
The result for `CC(=O)NC(CC(=O)NNC(=O)C(C)Oc1ccccc1F)c1ccccc1` (stereo not drawn) reads 3.28%; that for `Cc1ccc(S(=O)(=O)Nc2ccccc2CNc2c(C)n(C)n(-c3ccccc3)c2=O)cc1`, 10.1%; that for `O=C(Cn1nc(CNc2ccc(Cl)cc2)[n+]2c1CCCCC2)c1ccc(Cl)cc1.[Br-]`, 3.01%.
Take `Cc1cccc(-n2nnc(C(=O)NC3CCCc4ccccc43)c2N)c1` (stereo not drawn): the “hERG current change (%, negative = inhibition) at 1uM” value came to 15.9%.
The result for `OCC(Cl)CCl` (stereo not drawn) reads 10.8%; that for `CCOc1ccc(CN(C)CC(=O)NNC(=O)c2ccc(Cl)cc2)cc1OC`, -26.2%; that for `Cc1ccc(S(=O)(=O)N2CCCSCC2)cc1`, 9.76%.
The result for `Cc1cccc(N2CCN(CCNC(=O)c3cc4c(s3)CS(=O)(=O)C4)CC2)c1C` reads -12.3%.
The result for `C/C(=N\NC(=O)Cc1ccc(Cl)cc1)c1cccc(NC(=O)c2cccnc2)c1` reads 12.8%; that for `CCn1c(SCc2ccccc2F)nnc1-c1ccncc1`, 10.2%.
Turning to `CN1CCN(C(=O)c2cc(Cl)ccc2NC(=O)c2ccc(Cl)cc2Cl)CC1`, the “hERG current change (%, negative = inhibition) at 1uM” value was 12.6%.
The result for `Cc1ccc(-c2nnn3c2nc(NC(C)C)c2ccccc23)cc1` reads 9.78%.
On to `O=C(OCc1c(Cl)cccc1Cl)c1cccnc1Cl`, for which the “hERG current change (%, negative = inhibition) at 1uM” value came to 3.32%.
With `N#CC(C(=O)NC1CC1)c1nc2ccccc2nc1N1CCN(C/C=C/c2ccccc2)CC1` (stereo not drawn), the “hERG current change (%, negative = inhibition) at 1uM” value is recorded as -32.6%.
Regarding `CCN(CC)C(=O)Cn1cc(S(=O)(=O)CC(=O)Nc2ccccc2F)c2ccccc21`, the “hERG current change (%, negative = inhibition) at 1uM” value is recorded as -10.5%.
The result for `Cc1ccc(SCc2cc(=O)[nH]c(Nc3nc(C)c4cccc(C)c4n3)n2)cc1` reads -3.26%; that for `CC1CCCN(C(=O)COc2ccc(-c3ccccc3)cc2)C1` (stereo not drawn), 3.78%.
The result for `Nn1c(SCCOc2ccccc2)nnc1-c1cccnc1` reads 12.6%; that for `COc1ccc(C(=O)Nn2cnnc2)cc1OC`, 12.5%; that for `COc1ccc(S(=O)(=O)N2CCCCC2)cc1NC(=O)CCc1nc2ccccc2c(=O)[nH]1`, 5.73%.
In the case of `COC(=O)/C=C/c1ccc2c(c1)S(=O)(=O)N(Cc1ccc(OC)cc1)[C@H]2CC(=O)OC`, the “hERG current change (%, negative = inhibition) at 1uM” value is given as -16.2%.
The result for `CCOc1cc(/C=C2/NC(=S)NC2=O)ccc1OCc1ccc([N+](=O)[O-])cc1` reads 9.83%; that for `CCC(=O)N1c2ccccc2C(N(C(C)=O)c2ccccc2)CC1C` (stereo not drawn), 8%.
The result for `CCOC(=O)C1=CC(=C2C(=O)N(CC)C(=S)N(CC)C2=O)c2ccccc2O1` reads 14.6%.
The result for `COCCNC(=O)CN(C(=O)CCC(=O)Nc1cc(C)on1)c1ccccc1C` reads 9.19%; that for `O=C(CSc1n[nH]c(=O)[nH]c1=O)c1ccc([N+](=O)[O-])cc1`, 3.43%.
In the case of `O=C(CCc1ccccn1)N1CCCC(Nc2cccc(F)c2)C1` (stereo not drawn), the “hERG current change (%, negative = inhibition) at 1uM” value is recorded as 7.11%.
Turning to `CC(C)(O)C#Cc1ccc(C(=O)NCc2ccccc2)s1`, the “hERG current change (%, negative = inhibition) at 1uM” value is listed as -2.9%.
For the molecule `CC1(C)Cc2nc(Cl)c(C(=O)O)cc2CO1`, the “hERG current change (%, negative = inhibition) at 1uM” value is reported as 19.3%.
The result for `CCC(C)C(=O)Nc1nnc(SCC(=O)Nc2ccc(F)cc2)s1` (stereo not drawn) reads 15.2%; that for `CC1=C(C(=O)N2CCOCC2)C(c2ccccc2F)NC(=O)N1` (stereo not drawn), 10.3%; that for `Cc1ccc(S(=O)(=O)N(CC(=O)N2CCOCC2)c2ccc(Br)cc2)cc1`, 1.29%.
The result for `O=C(NCCC1=CCCCC1)c1ccc(Cl)cc1` reads 9.37%; that for `COc1ccc(C(F)(F)F)cc1N/C=C\c1nnnn1-c1ccccc1`, 14.5%.
On to `Cc1ccc(N2CC(C(=O)Nc3ccc(S(=O)(=O)N4CCCC4)cc3)CC2=O)cc1` (stereo not drawn), for which the “hERG current change (%, negative = inhibition) at 1uM” value is reported as -1.52%.
The result for `COc1ccc2c(c1)N(C)/C(=C1/SC(=NCc3ccccc3)N(c3ccccc3)C1=O)S2` reads 13.4%.
The result for `NS(=O)(=O)c1ccc(NC(=O)Cn2nc(C(=O)O)c3ccccc3c2=O)cc1` reads 19.2%.
The result for `CC1(C)COC(c2cccn2Cc2ccccc2Cl)=N1` reads 5.92%.
On to `O=C(CCS(=O)(=O)Cc1ccccc1)NC1CCCCC1`, for which the “hERG current change (%, negative = inhibition) at 1uM” value is -1.57%.
The result for `COC(=O)C1=C(c2ccc(F)cc2F)C[C@@H]2CC[C@H]1N2C(=O)N1CCC(O)(c2ccc(Cl)cc2)CC1` reads 15.2%; that for `COC(=O)CN1C(=O)[C@H]2[C@@H](c3ccc(C)o3)N3C(=O)CN(Cc4ccc(-c5ccccc5)cc4)C(=O)[C@@]3(C)[C@H]2C1=O`, 0.0123%.
The result for `CC(C)=CCC12CN3CCN(CC(C3)C1=O)C2` reads 3.95%.
The result for `CCN(CC)c1ccc(C(=O)NNC(=O)CCc2nc3ccccc3c(=O)[nH]2)cc1` reads 9.53%; that for `COc1cc(NC(=O)c2ccccc2)ccc1NC(=O)c1cc2ccccc2o1`, 9.27%; that for `O=c1cccc2n1CC1CC2CN(c2ncnc3c2cnn3-c2ccccc2)C1` (stereo not drawn), -7.14%.
As to `CCOc1ccc2[nH]cc(C(=O)N3CCN(CC)CC3)c(=O)c2c1`, the “hERG current change (%, negative = inhibition) at 1uM” value was -5.48%.
The result for `CNC(=O)CN(c1cc(C)ccc1C)S(C)(=O)=O` reads 2.83%; that for `O=C(COc1ccc(Br)cc1)N/N=C1\SCC(=O)N1c1ccc(F)cc1`, 3.05%; that for `Cc1cccc(-n2ncc3c2CCCC3NC(=O)CCN2CCCO2)c1C` (stereo not drawn), 16.2%.
The result for `CCN(CC)CCn1c2ccccc2c2nc(C)sc21` reads -11.8%; that for `Fc1ccccc1CNc1ccc(Cl)c(Cl)c1`, 11.7%; that for `CNS(=O)(=O)c1ccc(NC(=O)C2c3ccccc3Oc3ccccc32)cc1`, 5.58%.
The result for `COc1ccc(NC(=O)NCc2ccc3c(c2)OCO3)cc1OC` reads 8.27%.
On to `N#C/C(=C\c1ccc(O)c(O)c1)S(=O)(=O)c1ccccc1`, for which the “hERG current change (%, negative = inhibition) at 1uM” value turned out to be 7.28%.
The result for `COc1ccccc1C(=O)N(Cc1sccc1C)C1CCS(=O)(=O)C1` (stereo not drawn) reads 21.6%; that for `Cn1c(SCC(=O)Nc2ccc3c(c2)OCO3)nnc1-c1cnccn1`, 4.37%.
The result for `COc1cc2cc(C)c(SCC(=O)N3CCN(C(=O)c4ccco4)CC3)nc2cc1OC` reads -30.1%; that for `CCc1ccccc1-n1nnnc1SCC(=O)Nc1cc(C)on1`, 11.5%; that for `Cc1nc(C)c(C(=O)OCC(=O)Nc2ccccc2SCC#N)s1`, 3.08%.
`COc1cc(NC(=O)CSc2nc3[nH]ncc3c(=O)n2-c2ccccc2C)cc(OC)c1OC`: the “hERG current change (%, negative = inhibition) at 1uM” value was found to be 15.7%.
The result for `COc1ccc(CCNc2c([N+](=O)[O-])c(=O)oc3ccccc23)cc1OC` reads 0.298%; that for `Cc1ccc(C(=O)CCC(=O)OCC(=O)Nc2ccc3[nH]c(=O)[nH]c3c2)cc1`, 18.3%; that for `O=C(CC(c1ccccc1)c1cc(Br)ccc1O)N1CCCC1` (stereo not drawn), -6.76%.
The result for `O=C(Nc1nnc(-c2ccco2)o1)c1ccc(Cl)cc1` reads -13.6%; that for `COc1ccc(NC(=O)CCCCCN2C(=O)CCC2=O)cc1Cl`, 4.52%; that for `N#CCc1ccc(OC(=O)c2cnccc2C(F)(F)F)cc1`, 17.4%.
The result for `COc1ccccc1N1CC(C(=O)OCC(=O)c2ccc(F)cc2)CC1=O` (stereo not drawn) reads 16.2%.
With `Cc1ccc(NS(=O)(=O)c2c(C)[nH]c(=O)[nH]c2=O)c(C)c1`, the “hERG current change (%, negative = inhibition) at 1uM” value came out at 20%.
The result for `CCn1c(C)nnc1SCC(=O)NC1CCCCCC1` reads 6.57%; that for `CCCOc1cccc(C2C(C(=O)c3ccco3)=C(O)C(=O)N2c2nnc(C)s2)c1` (stereo not drawn), 8.62%; that for `CC12CC(NC(=O)N1c1cccc(C(=O)NCc3ccccn3)c1)c1ccccc1O2` (stereo not drawn), 12.5%.
The result for `Cc1sc(NC(=O)CS(=O)(=O)c2ccccc2)c(C(N)=O)c1C` reads -2.73%; that for `COC(=O)CCc1c(C)c(C(=O)c2ccc(F)cc2)c2ccccn12`, 14.1%.
